According to doi:10.1101/2020.02.12.945204 (bioRxiv, 2020):

Columns and labels:
[1] = biological target: T1, H6 flagella (polymeric flagellin) from E. coli O127:H6 (E. coli O127:H6, UniProt B7USU2 1-548); assay: ELISA
T1 sequence: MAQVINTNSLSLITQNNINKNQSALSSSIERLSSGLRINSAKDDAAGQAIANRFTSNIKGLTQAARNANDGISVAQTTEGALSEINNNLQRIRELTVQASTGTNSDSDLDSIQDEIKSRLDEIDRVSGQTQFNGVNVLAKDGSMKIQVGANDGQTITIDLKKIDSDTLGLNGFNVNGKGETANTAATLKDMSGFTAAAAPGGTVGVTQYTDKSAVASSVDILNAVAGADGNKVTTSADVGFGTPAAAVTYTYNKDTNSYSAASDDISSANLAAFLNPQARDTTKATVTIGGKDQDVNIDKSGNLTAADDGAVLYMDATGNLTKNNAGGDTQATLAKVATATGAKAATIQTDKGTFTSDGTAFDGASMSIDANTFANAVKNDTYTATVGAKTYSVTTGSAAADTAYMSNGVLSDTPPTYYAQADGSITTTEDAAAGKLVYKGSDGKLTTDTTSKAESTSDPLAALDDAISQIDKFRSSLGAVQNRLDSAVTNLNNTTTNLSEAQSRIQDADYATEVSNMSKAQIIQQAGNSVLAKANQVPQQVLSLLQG

[2] = biological target: T2, H48 flagella (polymeric flagellin) from commensal E. coli K12:O175:H48 (E. coli K12:O175:H48, UniProt P04949 1-498); assay: ELISA
T2 sequence: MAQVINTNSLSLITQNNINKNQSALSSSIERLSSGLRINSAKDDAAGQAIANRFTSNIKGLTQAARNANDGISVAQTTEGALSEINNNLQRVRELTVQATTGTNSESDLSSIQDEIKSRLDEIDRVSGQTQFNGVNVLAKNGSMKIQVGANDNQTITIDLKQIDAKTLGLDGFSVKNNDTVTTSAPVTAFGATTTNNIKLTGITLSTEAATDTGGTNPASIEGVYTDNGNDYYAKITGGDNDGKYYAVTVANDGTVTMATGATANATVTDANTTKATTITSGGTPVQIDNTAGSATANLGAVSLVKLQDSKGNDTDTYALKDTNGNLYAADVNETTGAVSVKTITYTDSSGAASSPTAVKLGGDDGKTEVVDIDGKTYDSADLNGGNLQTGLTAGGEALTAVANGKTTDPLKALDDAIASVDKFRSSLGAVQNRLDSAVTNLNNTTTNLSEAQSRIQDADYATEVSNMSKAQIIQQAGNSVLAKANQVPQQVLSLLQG

B1: recombinant human cofilin-1 (natural protein)
chain: not shown
B1: binds [1]; binds [2].
